# Molecular target: isolated recombinant JAK1 kinase domain (Homo sapiens (Human), UniProt P23458)
# Conditions: read-out: JAK1 Ki; isolated recombinant JAK1 kinase domain, 25 μM ATP
row,Ki [nM],SMILES
1,3.69,"CCOC(=O)N1CC=C(c2cccn3nc(Nc4ccc(C(=O)N5CCN(c6ccccn6)CC5)cc4)nc23)CC1 [Example 2-251, ethyl 4-[2-[4-[4-(2-pyridyl)piperazine-1-carbonyl]anilino]-[1,2,4]triazolo[1,5-a]pyridin-8-yl]-3,6-dihydro-2H-pyridine-1-carboxylate]"
2,2.34,"CCOC(=O)N1CC=C(c2cccn3nc(Nc4ccc(C(=O)N5CCC6(CCCNC6)CC5)cc4)nc23)CC1 [Example 2-252, ethyl 4-[2-[4-(2,9-diazaspiro[5.5]undecane-9-carbonyl)anilino]-[1,2,4]triazolo[1,5-a]pyridin-8-yl]-3,6-dihydro-2H-pyridine-1-carboxylate]"
3,1.43,"O=C(CCC(F)(F)F)N1CC=C(c2cccn3nc(Nc4ccc(C(=O)N5CCC6(CCCNC6)C5)cc4)nc23)CC1 (stereo not drawn) [Example 2-253, 1-[4-[2-[4-(2,9-diazaspiro[4.5]decane-2-carbonyl)anilino]-[1,2,4]triazolo[1,5-a]pyridin-8-yl]-3,6-dihydro-2H-pyridin-1-yl]-4,4,4-trifluoro-butan-1-one]"
4,1.37,"O=C(CCC(F)(F)F)N1CC=C(c2cccn3nc(Nc4ccc(C(=O)N5CCOC6(CCNCC6)C5)cc4)nc23)CC1 [Example 2-254, 4,4,4-trifluoro-1-[4-[2-[4-(1-oxa-4,9-diazaspiro[5.5]undecane-4-carbonyl)anilino]-[1,2,4]triazolo[1,5-a]pyridin-8-yl]-3,6-dihydro-2H-pyridin-1-yl]butan-1-one]"
5,2.86,"O=C(NC1CCNC1)c1ccc(Nc2nc3c(C4=CCN(C(=O)CCC(F)(F)F)CC4)cccn3n2)cc1 (stereo not drawn) [Example 2-255, N-pyrrolidin-3-yl-4-[[8-[1-(4,4,4-trifluorobutanoyl)-3,6-dihydro-2H-pyridin-4-yl][1,2,4]triazolo[1,5 a]pyridin-2-yl]amino]benzamide]"
6,0.67,"NC1CN(C(=O)c2ccc(Nc3nc4c(C5=CCN(C(=O)CCC(F)(F)F)CC5)cccn4n3)cc2)C1 [Example 2-256, 1-[4-[2-[4-(3-aminoazetidine-1-carbonyl)anilino]-[1,2,4]triazolo[1,5-a]pyridin-8-yl]-3,6-dihydro-2H-pyridin-1-yl]-4,4,4-trifluoro-butan-1-one]"
7,1.87,"O=C(CCC(F)(F)F)N1CC=C(c2cccn3nc(Nc4ccc(C(=O)N5CCCC56CCCNC6)cc4)nc23)CC1 (stereo not drawn) [Example 2-257, 1-[4-[2-[4-(1,9-diazaspiro[4.5]decane-1-carbonyl)anilino]-[1,2,4]triazolo[1,5-a]pyridin-8-yl]-3,6-dihydro-2H-pyridin-1-yl]-4,4,4-trifluoro-butan-1-one]"
8,0.97,"CN1CCOC2(C1)CN(C(=O)c1ccc(Nc3nc4c(C5=CCN(C(=O)CCC(F)(F)F)CC5)cccn4n3)cc1)C2 [Example 2-259, 4,4,4-trifluoro-1-[4-[2-[4-(8-methyl-5-oxa-2,8-diazaspiro[3.5]nonane-2-carbonyl)anilino]-[1,2,4]triazolo[1,5-a]pyridin-8-yl]-3,6-dihydro-2H-pyridin-1-yl]butan-1-one]"
9,1.83,"O=C(CCC(F)(F)F)N1CC=C(c2cccn3nc(Nc4ccc(C(=O)N5CCN(C6CCC6)CC5)cc4)nc23)CC1 [Example 2-260, 1-[4-[2-[4-(4-cyclobutylpiperazine-1-carbonyl)anilino]-[1,2,4]triazolo[1,5-a]pyridin-8-yl]-3,6-dihydro-2H-pyridin-1-yl]-4,4,4-trifluoro-butan-1-one]"
10,1.67,"CN(C)C(=O)C1(c2ccncc2)CCCN1C(=O)c1ccc(Nc2nc3c(C4=CCN(C(=O)CCC(F)(F)F)CC4)cccn3n2)cc1 (stereo not drawn) [Example 2-261, N,N-dimethyl-2-(4-pyridyl)-1-[4-[[8-[1-(4,4,4-trifluorobutanoyl)-3,6-dihydro-2H-pyridin-4-yl]-[1,2,4]triazolo[1,5-a]pyridin-2-yl]amino]benzoyl] pyrrolidine-2-carboxamide]"

# More lines, now with the values behind:
row,SMILES,Ki [nM]
1,"CCOC(=O)N1CC=C(c2cccn3nc(Nc4ccc(C(=O)NCCc5cccc(C)n5)cc4)nc23)CC1 [Example 2-229, ethyl 4-[2-[4-[2-(6-methyl-2-pyridyl)ethylcarbamoyl]anilino]-[1,2,4]triazolo[1,5-a]pyridin-8-yl]-3,6-dihydro-2H-pyridine-1-carboxylate]",3.39
2,"CCOC(=O)N1CC=C(c2cccn3nc(Nc4ccc(C(=O)NCCNC)cc4)nc23)CC1 [Example 2-230, ethyl 4-[2-[4-[2-(methylamino)ethylcarbamoyl]anilino]-[1,2,4]triazolo[1,5-a]pyridin-8-yl]-3,6-dihydro-2H-pyridine-1-carboxylate]",2.4
3,"CCOC(=O)N1CC=C(c2cccn3nc(Nc4ccc(C(=O)NCC5CCCN5)cc4)nc23)CC1 (stereo not drawn) [Example 2-233, ethyl 4-[2-[4-(pyrrolidin-2-ylmethylcarbamoyl)anilino]-[1,2,4]triazolo[1,5-a]pyridin-8-yl]-3,6-dihydro-2H-pyridine-1-carboxylate]",2.8
4,"CCOC(=O)N1CC=C(c2cccn3nc(Nc4ccc(C(=O)N5CCC(Cc6ccccn6)C5)cc4)nc23)CC1 (stereo not drawn) [Example 2-234, ethyl 4-[2-[4-[3-(2-pyridylmethyl)pyrrolidine-1-carbonyl]anilino]-[1,2,4]triazolo[1,5-a]pyridin-8-yl]-3,6-dihydro-2H-pyridine-1-carboxylate]",3.72
5,"CCOC(=O)N1CC=C(c2cccn3nc(Nc4ccc(C(=O)N5CCCCC5Cc5ccccn5)cc4)nc23)CC1 (stereo not drawn) [Example 2-235, ethyl 4-[2-[4-[2-(2-pyridylmethyl)piperidine-1-carbonyl]anilino]-[1,2,4]triazolo[1,5-a]pyridin-8-yl]-3,6-dihydro-2H-pyridine-1-carboxylate]",1.68
6,"CCOC(=O)N1CC=C(c2cccn3nc(Nc4ccc(C(=O)N5CCN(CCOC)CC5)cc4)nc23)CC1 [Example 2-236, ethyl 4-[2-[4-[4-(2-methoxyethyl)piperazine-1-carbonyl]anilino]-[1,2,4]triazolo[1,5-a]pyridin-8-yl]-3,6-dihydro-2H-pyridine-1-carboxylate]",2.94
7,"CCOC(=O)N1CC=C(c2cccn3nc(Nc4ccc(C(=O)N(C)CCc5cccnc5)cc4)nc23)CC1 [Example 2-237, ethyl 4-[2-[4-[methyl-[2-(3-pyridyl)ethyl]carbamoyl]anilino]-[1,2,4]triazolo[1,5-a]pyridin-8-yl]-3,6-dihydro-2H-pyridine-1-carboxylate]",2.37
8,"CCOC(=O)N1CC=C(c2cccn3nc(Nc4ccc(C(=O)N5CCN(CC6CC6)CC5)cc4)nc23)CC1 [Example 2-238, ethyl 4-[2-[4-[4-(cyclopropylmethyl)piperazine-1-carbonyl]anilino]-[1,2,4]triazolo[1,5-a]pyridin-8-yl]-3,6-dihydro-2H-pyridine-1-carboxylate]",2.88
9,"CCOC(=O)N1CC=C(c2cccn3nc(Nc4ccc(C(=O)N5CCCC5Cc5ccccn5)cc4)nc23)CC1 (stereo not drawn) [Example 2-239, ethyl 4-[2-[4-[2-(2-pyridylmethyl)pyrrolidine-1-carbonyl]anilino]-[l,2,4]triazolo[1,5-a]pyridin-8-yl]-3,6-dihydro-2H-pyridine-1-carboxylate]",3.21
10,"CCOC(=O)N1CC=C(c2cccn3nc(Nc4ccc(C(=O)N5CCCC(O)(CN6CCCC6)CC5)cc4)nc23)CC1 (stereo not drawn) [Example 2-241, ethyl 4-[2-[4-[4-hydroxy-4-(pyrrolidin-1-ylmethyl)azepane-1-carbonyl]anilino]-[1,2,4]triazolo[1,5-a]pyridin-8-yl]-3,6-dihydro-2H-pyridine-1-carboxylate]",1.08
11,"CCOC(=O)N1CC=C(c2cccn3nc(Nc4ccc(C(=O)N5CCCC(CCN(C)C)C5)cc4)nc23)CC1 (stereo not drawn) [Example 2-242, ethyl 4-[2-[4-[3-[2-(dimethylamino)ethyl]piperidine-1-carbonyl]anilino]-[1,2,4]triazolo[1,5-a]pyridin-8-yl]-3,6-dihydro-2H-pyridine-1-carboxylate]",6.4
12,"CCOC(=O)N1CC=C(c2cccn3nc(Nc4ccc(C(=O)N5CCN(C)CC5C(=O)N(C)C)cc4)nc23)CC1 (stereo not drawn) [Example 2-243, ethyl 4-[2-[4-[2-(dimethylcarbamoyl)-4-methyl-piperazine-1-carbonyl]anilino]-[1,2,4]triazolo[1,5-a]pyridin-8-yl]-3,6-dihydro-2H-pyridine-1-carboxylate]",5.47
13,"CCOC(=O)N1CC=C(c2cccn3nc(Nc4ccc(C(=O)NCc5ccc(C)nc5)cc4)nc23)CC1 [Example 2-245, ethyl 4-[2-[4-[(6-methyl-3-pyridyl)methylcarbamoyl]anilino]-[1,2,4]triazolo[1,5-a]pyridin-8-yl]-3,6-dihydro-2H-pyridine-1-carboxylate]",3.04
14,"CCOC(=O)N1CC=C(c2cccn3nc(Nc4ccc(C(=O)N5CC[C@H]6CNC[C@H]65)cc4)nc23)CC1 [Example 2-246, ethyl 4-[2-[4-[(3aS,6aS)-3,3a,4,5,6,6a-hexahydro-2H-pyrrolo[2,3-c]pyrrole-1-carbonyl]anilino]-[1,2,4]triazolo[1,5-a]pyridin-8-yl]-3,6-dihydro-2H-pyridine-1-carboxylate]",2.09
15,"CCOC(=O)N1CC=C(c2cccn3nc(Nc4ccc(C(=O)N5CCCCC56CCCNC6)cc4)nc23)CC1 (stereo not drawn) [Example 2-247, ethyl 4-[2-[4-(1,8-diazaspiro[5.5]undecane-1-carbonyl)anilino]-[1,2,4]triazolo[1,5-a]pyridin-8-yl]-3,6-dihydro-2H-pyridine-1-carboxylate]",4.37
16,"CCOC(=O)N1CC=C(c2cccn3nc(Nc4ccc(C(=O)N5C[C@H]6CN[C@H]6C5)cc4)nc23)CC1 [Example 2-248, ethyl 4-[2-[4-[(1R,5R)-3,6-diazabicyclo[3.2.0]heptane-3-carbonyl]anilino]-[1,2,4]triazolo[1,5-a]pyridin-8-yl]-3,6-dihyro-2H-pyridine-1-carboxylate]",4.13
17,"CCOC(=O)N1CC=C(c2cccn3nc(Nc4ccc(C(=O)NCC5CCN(C)CC5)cc4)nc23)CC1 [Example 2-249, ethyl 4-[2-[4-[(1-methyl-4-piperidyl)methylcarbamoyl]anilino]-[1,2,4]triazolo[1,5-a]pyridin-8-yl]-3,6-dihydro-2H-pyridine-1-carboxylate]",19.6

# — patent US9873709B2 (priority 2013, dated 2018)
